Counter-ions that a name gives are not always drawn. ± gives the standard deviation of the averaged measurements. In all, about 3,100 compounds were measured (“mean cytoplasmic OPP incorporation (global translation) relative to DMSO”: median about 100, lowest 2% from about 56 on). The list shows a part of the results.

The experiment has as its system U2OS. Description: mean cytoplasmic OPP incorporation (global translation) relative to DMSO (% of DMSO); higher = more protein synthesis. The settings on record: 10 µM; 24 h. As for the experimental part:
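Primary image-based screen in U2OS cells: compounds at 10 uM for 24 h, then a 1 h o-propargyl-puromycin (OPP) pulse, click labelling, and high-throughput microscopy. Mean cytoplasmic OPP intensity and nuclei count were normalised to DMSO wells within each plate (DMSO = 100) and averaged over triplicate plates.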
Take `NC1(c2ccccc2Cl)CCCCC1=O` (stereo not drawn) [Norketamine hydrochloride]: the “mean cytoplasmic OPP incorporation” value is 98.9.
For the compound `O=C1NC(=O)c2c1c1c3ccccc3[nH]c1c1[nH]c3ccccc3c21` [Arcyriaflavin A], the “mean cytoplasmic OPP incorporation” value is 82.7.
Turning to `COc1cccc(C2(O)CCCCC2CN(C)C)c1` (stereo not drawn) [Tramadol hydrochloride], the “mean cytoplasmic OPP incorporation” value worked out at 96.8.
For the compound `CC(CCc1ccccc1)NC(C)C(O)c1ccc(O)cc1` (stereo not drawn) [Nylidrin], the “mean cytoplasmic OPP incorporation” value worked out at 97.4.
Consider `CC(=O)OC1CN2CCC1CC2` (stereo not drawn) [Aceclidine Hydrochloride], for which the “mean cytoplasmic OPP incorporation” value came out at 100.
In the case of `CCCN(C/C=C/I)C1CCc2ccc(O)cc2C1` (stereo not drawn) [7-Hydroxy-PIPAT maleate], the “mean cytoplasmic OPP incorporation” value turned out to be 99.6.
On to `O=C(O)CNC(=O)c1c(O)c2ccccc2n(Cc2ccccc2)c1=O`, for which the “mean cytoplasmic OPP incorporation” value stood at 100 ± 2.1.
Consider `c1ccc2nc(N3CCNCC3)ccc2c1` [Quipazine dimaleate], for which the “mean cytoplasmic OPP incorporation” value came out at 101.
The figure for `c1ccc2nc(N3CCNCC3)ccc2c1` [Quipazine dimaleate salt] is 101; for `C[N+](C)(C)CCCCCCCCCC[N+](C)(C)C` [Decamethonium bromide] it is 102; for `CN1C[C@H](C(=O)N[C@]2(C)O[C@@]3(O)[C@@H]4CCCN4C(=O)[C@H](Cc4ccccc4)N3C2=O)C[C@@H]2c3cccc4[nH]cc(c34)C[C@H]21` [Dihydroergotamine mesylate] it is 116.
For the compound `CN1C[C@H](C(=O)N[C@]2(C)O[C@@]3(O)[C@@H]4CCCN4C(=O)[C@H](Cc4ccccc4)N3C2=O)C[C@@H]2c3cccc4[nH]cc(c34)C[C@H]21` [Dihydroergotamine tartrate], the “mean cytoplasmic OPP incorporation” value is 115.
As to `O=C1NCN(c2ccccc2)C12CCN(CC1COc3ccccc3O1)CC2` (stereo not drawn) [Spiroxatrine], the “mean cytoplasmic OPP incorporation” value was 99.4.
As for `C[N+]1(C)[C@@H]2CC[C@H]1C[C@@H](OC(=O)C(CO)c1ccccc1)C2` (stereo partly drawn) [Methylatropine nitrate], the “mean cytoplasmic OPP incorporation” value stood at 102.
Regarding `CC(N)Cc1c[nH]c2ccc(OCc3cccs3)cc12` (stereo not drawn) [BW 723C86 hydrochloride], the “mean cytoplasmic OPP incorporation” value turned out to be 101.
The same measure for `C1=C2CCCN[C@H]2[C@@H]2C[C@H]1[C@H]1CCCCN1C2` [Aloperine]: 102; for `CC(C)[C@@]1(NC(=O)[C@@H]2C[C@@H]3c4cccc5[nH]cc(c45)C[C@H]3N(C)C2)O[C@@]2(O)[C@@H]3CCCN3C(=O)[C@H](Cc3ccccc3)N2C1=O` [Dihydroergocristine mesylate]: 112; for `CN1CCC(c2c[nH]c3ccc(O)cc23)CC1`: 99.8.
The figure for `CC(=O)C1=C(O)[C@@H]2[C@H]3c4c[nH]c5cccc(c45)C[C@H]3C(C)(C)N2C1=O` [Cyclopiazonic acid] is 97.2.
For the compound `CC(=O)C1=C(O)[C@@H]2[C@H]3c4c[nH]c5cccc(c45)C[C@H]3C(C)(C)N2C1=O` [Cyclopiazonic Acid], the “mean cytoplasmic OPP incorporation” value was 98.5.
As to `CCN[C@@H](C)Cc1cccc(C(F)(F)F)c1` [Dexfenfluramine hydrochloride], the “mean cytoplasmic OPP incorporation” value was 77.4.
Consider `CC(C)[C@@]1(O)[C@@H](OC(=O)c2ccc[nH]2)[C@@]2(O)[C@@]3(C)C[C@]4(O)O[C@@]5([C@H](O)[C@@H](C)CC[C@]35O)[C@@]2(O)[C@@]14C` [Ryanodine], for which the “mean cytoplasmic OPP incorporation” value was 96.3.
For the compound `C[N+](C)(C)CC#CCN1CCCC1=O` [Oxotremorine M], the “mean cytoplasmic OPP incorporation” value came to 83.4.
For the compound `COc1ccc(CNC(=O)/C=C/c2ccc3[nH]cc(CCN(C)C)c3c2)cc1`, the “mean cytoplasmic OPP incorporation” value came out at 106.
On to `C[CH2][Hg][S]c1ccccc1C(=O)[O-].[Na+]` [Thimerosal], for which the “mean cytoplasmic OPP incorporation” value stood at 15.5.
Turning to `C[N+]1(C)CCOC(O)(c2ccc(-c3ccc(C4(O)C[N+](C)(C)CCO4)cc3)cc2)C1` (stereo not drawn) [Hemicholinium bromide], the “mean cytoplasmic OPP incorporation” value turned out to be 99.6.
`COc1cc2c(cc1O)C(CCc1ccc(Cl)cc1)N(C)CC2` (stereo not drawn): the “mean cytoplasmic OPP incorporation” value is 103.
On to `Nc1ccncc1` [4-Aminopyridine], for which the “mean cytoplasmic OPP incorporation” value came out at 101 ± 1.2.
As to `COc1ccc(-n2nc(C(F)(F)F)cc2-c2ccc(Cl)cc2)cc1`, the “mean cytoplasmic OPP incorporation” value amounted to 104.
For `CN(C)Cc1c[nH]c2ccccc12` [Gramine], the “mean cytoplasmic OPP incorporation” value amounted to 99.2.
The same measure for `CC(=O)N[C@H]1[C@@H](O[C@@H]2O[C@H](CC(O)[C@H]3O[C@@H](n4ccc(=O)[nH]c4=O)[C@H](O)[C@@H]3O)[C@H](O)[C@H](O)[C@H]2NC(=O)/C=C/CC(C)C)O[C@H](CO)[C@@H](N)[C@@H]1O` (stereo partly drawn) [Tunicamycin]: 122.
On to `O=P(O)(O)Cc1ccccc1` [Benzylphosphonic acid], for which the “mean cytoplasmic OPP incorporation” value is 96.9.
For `C[C@]12CCC(=O)C=C1CC[C@@H]1[C@@H]2C(=O)C[C@]2(C)C(=O)CC[C@@H]12` [Adrenosterone], the “mean cytoplasmic OPP incorporation” value was 102.
As to `CC1(C)CCCC(C)(C)N1[O]`, the “mean cytoplasmic OPP incorporation” value was found to be 103.
The same measure for `CC(C(=O)OC1CC2CCC(C1)N2C)c1ccc(Br)cc1` (stereo not drawn) [PG-9 maleate]: 101; for `O=C(O[C@H]1C[C@H]2CC[C@@H](C1)[N+]21CCCC1)C(O)(c1ccccc1)c1ccccc1` [Trospium chloride (Sanctura)]: 105.
Turning to `Cc1ncc(CN2CC=C(c3ccccc3)CC2)c(N)n1`, the “mean cytoplasmic OPP incorporation” value came to 101.
The figure for `Cc1[nH]c2ccc(O)cc2c1CCN` [2-Methyl-5-hydroxytryptamine hydrochloride] is 104.
The figure for `O=C1/C(=C/c2ccccc2)C[C@@]2(O)[C@H]3Cc4ccc(O)c5c4[C@@]2(CCN3CC2CC2)[C@H]1O5` [BNTX maleate] is 34.8.
As to `COc1ccc(C(=O)N2CCCC2=O)cc1` [Aniracetam], the “mean cytoplasmic OPP incorporation” value was found to be 97.5 ± 3.1.
For `O=Cc1cn(Cc2ccc(Cl)cc2)c2ccccc12` [Oncrasin 1], the “mean cytoplasmic OPP incorporation” value came to 83.4.
In the case of `NCC(CS(=O)(=O)O)c1ccc(Cl)cc1` (stereo not drawn) [Saclofen], the “mean cytoplasmic OPP incorporation” value was found to be 104.
The figure for `O=C(O)CCCc1ccc(N(CCCl)CCCl)cc1` [Chlorambucil] is 96.1; for `CC[C@@H](C(N)=O)N1CCCC1=O` [Levetiracetam] it is 99.1; for `O=c1[nH]c2ccccc2n1CCCN1CCC(n2c(=O)[nH]c3cc(Cl)ccc32)CC1` [Domperidone] it is 110 ± 4.3.
The figure for `O=C([O-])c1ccccc1-c1c2cc(Br)c(=O)cc-2oc2[c]([Hg+])c([O-])c(Br)cc12.[Na+].[Na+].[OH-]` [Merbromin] is 101; for `CC(=O)O[C@@]12CO[C@@H]1C[C@@H](O)[C@@]1(C)C(=O)[C@H](O)C3=C(C)[C@@H](O)C[C@@](O)([C@@H](OC(=O)c4ccccc4)[C@H]21)C3(C)C` [10-DAB (10-Deacetylbaccatin)] it is 113; for `CC(C)[N+](C)(CCC(C(N)=O)(c1ccccc1)c1ccccc1)C(C)C` [Isopropamide iodide] it is 106.

Values taken from the supplement of paper PMC8183993.
